Screen size: about 390,000 compounds; about 17,000 (4.4%) were called active. Inconclusive results, whose numbers are uncertain, are shown with a selection of clear calls. The call rests on the fitted dose curve; in most records, active means well fitted inhibition curve with a large enough effect; inconclusive means small, poorly fitted or top-dose-only effect; inactive means no such curve, though single readings can be large or run the other way. Where the call is inconclusive, the potency comes from a doubtful curve fit.
What follows are compounds tested against Lysine-specific demethylase 4A (Homo sapiens) (UniProt O75164) (assay: qHTS Assay for Inhibitors of JMJD2A-Tudor Domain). Settings: AlphaScreen JMJD2A-Tudor / H3K4me3 peptide binding; series mostly up to 114 µM.
Chain of UniProt O75164 (O75164 whole entry, looked up, the tested form may be a part): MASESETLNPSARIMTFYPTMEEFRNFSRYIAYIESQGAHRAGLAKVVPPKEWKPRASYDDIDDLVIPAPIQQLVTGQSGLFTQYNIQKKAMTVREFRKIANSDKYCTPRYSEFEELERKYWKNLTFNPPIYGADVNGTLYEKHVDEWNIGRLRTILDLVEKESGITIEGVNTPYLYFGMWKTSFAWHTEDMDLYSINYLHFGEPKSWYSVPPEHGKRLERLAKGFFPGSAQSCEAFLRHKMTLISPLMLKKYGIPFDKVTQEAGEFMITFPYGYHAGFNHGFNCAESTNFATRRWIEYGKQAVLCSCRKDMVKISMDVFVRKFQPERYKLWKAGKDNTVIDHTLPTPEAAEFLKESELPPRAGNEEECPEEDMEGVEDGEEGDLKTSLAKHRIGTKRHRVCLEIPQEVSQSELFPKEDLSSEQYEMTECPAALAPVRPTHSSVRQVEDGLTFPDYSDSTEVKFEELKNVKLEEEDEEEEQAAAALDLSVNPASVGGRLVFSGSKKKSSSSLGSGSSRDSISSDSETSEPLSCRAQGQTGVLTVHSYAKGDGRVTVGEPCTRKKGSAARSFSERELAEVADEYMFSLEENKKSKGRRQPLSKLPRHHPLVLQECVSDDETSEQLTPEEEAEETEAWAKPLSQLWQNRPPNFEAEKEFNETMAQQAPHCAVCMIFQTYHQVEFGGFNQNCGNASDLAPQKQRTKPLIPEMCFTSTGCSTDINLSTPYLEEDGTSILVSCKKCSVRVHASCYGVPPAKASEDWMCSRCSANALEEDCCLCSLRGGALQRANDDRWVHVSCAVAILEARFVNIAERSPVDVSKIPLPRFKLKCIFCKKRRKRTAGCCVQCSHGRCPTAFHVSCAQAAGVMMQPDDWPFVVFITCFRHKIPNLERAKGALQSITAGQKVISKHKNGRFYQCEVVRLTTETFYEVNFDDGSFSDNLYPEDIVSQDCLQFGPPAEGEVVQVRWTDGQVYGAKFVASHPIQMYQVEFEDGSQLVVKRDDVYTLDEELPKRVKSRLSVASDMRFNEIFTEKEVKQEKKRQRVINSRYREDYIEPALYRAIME
Further: nearly all actives have a fitted effect of over 50% in size.
Potency means the concentration at half of the fitted maximal effect; tags describe the fitted curve by direction and shape.

Potency, inconclusive:
COc1cc(NC(=O)C(CC(C)C)NS(=O)(=O)c2ccc3c(c2)CCN3C(C)=O)cc(OC)c1 (stereo not given) 89.1 µM [inhibitor, partial curve], O=C(CCCc1ccccn1)c1ccccc1 3.55 µM [inhibitor, full curve, poor fit], CCCCCCC(=O)Nc1nc(C)c(-c2csc(Nc3cccc(OC)c3)n2)s1 63.1 µM [inhibitor, partial curve, poor fit], CC(=O)Nc1sc(N/N=C\c2ccccc2F)nc1-c1cccs1 22.4 µM [inhibitor, full curve], CCOC(=O)N1CCC(NC(=O)C2CCN(C(=O)c3cc4oc(C)cc4n3Cc3c(F)cccc3Cl)CC2)CC1 44.7 µM [inhibitor, full curve], Cn1c(SCC(=O)NC(=O)NCc2ccco2)nnc1-c1ccccc1 89.1 µM [inhibitor, partial curve], O=C(OCC(=O)N1CCC(c2ccccc2)=N1)c1ccc([N+](=O)[O-])s1 14.1 µM [inhibitor, full curve], CCc1ccc(N(C(=O)c2csnn2)C(C(=O)NC2CCCCC2)c2cccnc2)cc1 (stereo not given) 25.1 µM [inhibitor, single point], O=C(CSC(=S)N1CCCC1)c1cc(Br)cc(Br)c1O 44.7 µM [inhibitor, partial curve], COc1ccccc1/C=C1\SC(=S)N(CCC(=O)Nc2nnc(C)s2)C1=O 1.26 µM [inhibitor, full curve]

Potency, active:
O=C(c1cc(-c2ccco2)nc2ccccc12)N1CCN(c2ccc(F)cc2)CC1 56.2 µM, Nc1cc([N+](=O)[O-])cc2oc(-c3ccccc3)cc12 12.6 µM, Cc1nc(SCC(=O)c2cccc([N+](=O)[O-])c2)n[nH]1 39.8 µM, COc1cc(C(=O)N=c2sc3ccccc3n2C)cc(OC)c1OC 50.1 µM, CC(=O)Nc1ccc(/C(C)=N/NC(=O)c2ccc(F)cc2)cc1 89.1 µM

Potency, inactive:
c1ccc2c(c1)CCN(c1nc(CN3CCOCC3)nc3sc4c(c13)CCCC4)C2, CC(C)c1ccc2oc(-c3ccc(NC(=O)c4cccc(Br)c4)cc3)nc2c1, O=C(NNC(=O)c1cccnc1SCc1cccc([N+](=O)[O-])c1)c1ccc(F)cc1, Cc1cc2c(=O)n(Cc3ccco3)c(SCC(=O)c3ccc(Cl)s3)nc2s1, O=C(NCc1ccccc1)c1ccc(C2SCC(=O)N2Cc2ccccc2)cc1 (stereo not given)
